These results are taken from the supplement of paper PMC11417369.

± gives the standard deviation of the averaged measurements. The list shows a part of the results.

The test system of this assay is PfAP2-EXP AP2 domain (GST-tagged). As to the kind of experiment: gcPBM binding intensity (ln(normalized median fluorescence intensity)); higher = stronger DNA binding. Summed up:
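GST-tagged P. falciparum DNA-binding domains produced in E. coli were incubated for 1 h on an Agilent 4 × 180k array of primer-extended double-stranded 36-bp intergenic genomic probes with negative controls. Binding intensity is the highest Masliner-normalised natural-log median intensity across replicate spots of either probe orientation, with bound protein detected by Alexa488 anti-GST antibody at 488 nm.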
On to “ATGTTGTACAAACACACACACAAAAAAAAAATAAAA [CACACA_site2406]”, for which the “gcPBM binding intensity (ln)” value worked out at 8.59 ± 0.59.
Consider “TTAATATTCCAGCTTTGTACATATATATATTATAAA [XGTACX_site7954]”, for which the “gcPBM binding intensity (ln)” value turned out to be 8.61 ± 0.46.
Consider “TTAATGGAAAAATAGGCACACACACCGATATACATA [CACACA_site8356]”, for which the “gcPBM binding intensity (ln)” value stood at 8.84 ± 0.5.
As for “TGGCTTTCCCTGCCGGTGCATTAACATTTTTTACAT [GTGCAC_site9914]”, the “gcPBM binding intensity (ln)” value amounted to 8.95 ± 0.23.
The figure for “TTTTACATAAATTATAAATATATAAAATAAAAAAAA [CACACA_negctrl_site1499]” is 8.22 ± 0.54; for “CATATATATATTTTTTGTACATATATTTTTACATAT [XGTACX_site8419]” it is 8.81 ± 0.43; for “AAAAAGAAGAAGAAATGTACGTAACTATATATTTAT [XGTACX_site4362]” it is 8.8 ± 0.48.
Then “AAATAAATACTAGGCACACACACATATATATATATA [CACACA_site2079]”, with 10 ± 0.45; and “TATATGTTTAATTTCACACACAAATATGCATTTTAA [CACACA_site7881]”, with 8.59 ± 0.42.
With “ATTGTAAGGAAACACACACACATATATATGTATATA [CACACA_site676]”, the “gcPBM binding intensity (ln)” value is 8.74 ± 0.35.
The figure for “ATTATTGTAATATTAGCACACATTACCTCACTACAA [CACACA_site2560]” is 8.76 ± 0.32.
The figure for “ATTATTCAGGTAAAGTGTACAGGAGAAAAATAAAAT [XGTACX_site334]” is 9.07 ± 0.32; for “ATATATATATATATATGTACGTATAATATATATATG [XGTACX_site2212]” it is 10.1 ± 0.37; for “CGCACCCAAATATATACACACATATATATATATATA [CACACA_site1651]” it is 10.1 ± 0.54.
The figure for “GGAAAATGAAAACAAGGTACACATAAGAACAAACAA [XGTACX_site1221]” is 9.07 ± 0.77; for “AATAGGGTCATTCAAAAAAAAAAAAAATAATAATAC [CACACA_negctrl_site644]” it is 8.61 ± 0.46.
Turning to AAATTTGCTTTACCAGTGCAAAAAAAAAAAAAAAAA, the “gcPBM binding intensity (ln)” value worked out at 8.25 ± 0.18.
Turning to “TGTTTTTATCCTTATGGTACAGTATAATACTTACAG [XGTACX_site6381]”, the “gcPBM binding intensity (ln)” value was 8.72 ± 0.45.
The figure for “AAATCACATAAAAATAGTACTTTTTTTTTTTTTTTT [XGTACX_site2696]” is 8.56 ± 0.25; for “AGTAGTCTGGAGAAGAGTACACAGTATCTGGTAGCT [XGTACX_site2042]” it is 8.48 ± 0.47; for “ACATTAACATTGTTGGTGCAAAATTAATATGTTTTT [GTGCAC_site9673]” it is 8.52 ± 0.13.
The figure for “TATTATATATATATATGTACATATTGTATGTTATAT [XGTACX_site5303]” is 8.54 ± 0.35.
Then “TTTTTTTCAATATTTGCACACGATTAAAATATTTAA [CACACA_site5266]”, with 8.63 ± 0.18.
Regarding “CAAACATATTAATGTACACACACCCACCCACAAACA [CACACA_site2752]”, the “gcPBM binding intensity (ln)” value was 9.59 ± 0.65.
Then “TATGTGAATATTGAGGTGCGGTTGTTAAAATTTATA [GTGCAC_site9915]”, with 8.64 ± 0.27; and “TTAAATATTTTTTATACACACATTTCTTATTTAACT [CACACA_site229]”, with 8.45 ± 0.49.
With “TAATTATTATTAATAGTACACACTATGGCATTTCAA [CACACA_site2488]”, the “gcPBM binding intensity (ln)” value stood at 8.36 ± 0.36.
The figure for “TTTATTTATAGGTATACACACTTTAATTAAAAGTTG [CACACA_site7232]” is 8.51 ± 0.44.
The figure for “CCTAAAGTGTAAAATTCACACACATATATATATATA [CACACA_site8385]” is 10.2 ± 0.44; for “TTTATTTTTGAAGTTGCACACACAAAAATAAAAAGT [CACACA_site8030]” it is 8.66 ± 0.36; for “TGATAATATTATATATGTACATATATGTATATTTTT [XGTACX_site7193]” it is 8.37 ± 0.37.
Turning to ATGAAACACTCCATAGTGCAAAATATATATTATATT, the “gcPBM binding intensity (ln)” value was 8.93 ± 0.32.
Then “CTATTTTTCCTGAAATGTACAAGAATTTTATTTGAT [XGTACX_site8867]”, with 8.28 ± 0.25.
On to “CAAAAATAATTTAGGTGTACAAATTTGACAAAAAAA [XGTACX_site188]”, for which the “gcPBM binding intensity (ln)” value was 8.85 ± 0.3.
Regarding “AATTCAATTGAGCAAAATTCAAATAAATTAAAAAGA [XGTACX_negctrl_site71]”, the “gcPBM binding intensity (ln)” value stood at 8.35 ± 0.5.
Take “TTGGTATATTATAAAAGTACACATAATAAAAAATTT [XGTACX_site7985]”: the “gcPBM binding intensity (ln)” value stood at 8.57 ± 0.36.
Then “ATATGGGTGAACATATGTACATATATATATTGATAA [XGTACX_site8438]”, with 8.89 ± 0.37.
Then ATTATTACTTTTTGAGTGCACATACACACAGACATA, with 9.195 ± 0.064; and “ATAACTATAATAATCATACACACCAAAGAGAATATT [CACACA_site6970]”, with 8.57 ± 0.13; and “ATTTTTCATTCTGGACATGTTACCATTATATATATG [CACACA_negctrl_site61]”, with 9.12 ± 0.46.
Consider “TTTTGTTTAAAAAAAAAAAACAAAAAAAAGCAATTA [CACACA_negctrl_site314]”, for which the “gcPBM binding intensity (ln)” value was 8.32 ± 0.51.
Then “ATTAAAAAAATATACGCACACAAAATGTAATAACAA [CACACA_site2439]”, with 8.74 ± 0.35.
The figure for “TAATTTGTTATGTATTGTACAAATAATATATGATAT [XGTACX_site1985]” is 8.6 ± 0.28.
The figure for “TTACATAATTTATGTACACACGCAAATACTTATAAT [CACACA_site4331]” is 8.7 ± 0.33; for “GTATTATCTGCTTTTTGTACACATATATTTAAAAAA [XGTACX_site7603]” it is 9.18 ± 0.26; for “TTCTGTGTGTATTGGCGTACAATTATTTTGCCTACA [XGTACX_site205]” it is 8.96 ± 0.38.
On to “ACATTCACAAAATTTTGTACACATATATATATATAT [XGTACX_site3518]”, for which the “gcPBM binding intensity (ln)” value came to 10 ± 0.26.
Consider “AAAAGGAATTATAGGAAATAAATATATACAAATATA [TGCATGCA_negctrl_site528]”, for which the “gcPBM binding intensity (ln)” value stood at 8.53 ± 0.39.
The figure for CGATTTTTTAAGTTTGTGCACTTAAAAACTATAACA is 8.675 ± 0.007.
The figure for “CCATTTGATAATAATGCACACCACATATATTTATAT [CACACA_site9002]” is 8.805 ± 0.035; for “TATTTCAAAATAAAATAAAATATATATATATGTATA [XGTACX_negctrl_site416]” it is 8.33 ± 0.21; for “TATACTATACAACACATACACACAAAAAAAAAAAAA [CACACA_site537]” it is 8.43 ± 0.59.
The figure for “TATATGTCAATATCTACACACATATAGGTAATTATT [CACACA_site7475]” is 8.42 ± 0.52; for “TTTATTTATTAAGAATGTACATGTATTTGTTAAATA [XGTACX_site4465]” it is 8.34 ± 0.23.
For the sequence “TAAATCATGGGATAAGCATGCGCGCACATGTTTGTT [TGCATGCA_site768]”, the “gcPBM binding intensity (ln)” value was 8.79 ± 0.3.
The figure for “ACCCACGTAAATTAAGCATGCCTTCCGTTATATTTA [TGCATGCA_site365]” is 9.28 ± 0.56; for “TTTTACTAAATATATACACACATTATGCATATATAT [CACACA_site3287]” it is 8.51 ± 0.38.
